Measurements as given in the supplement of paper PMC8512760.
This is one part of the list. Single values are uncertain, as repeats are few or missing.

system: SUM-149; assay: cell viability relative to vehicle (% of vehicle); basal-like triple-negative breast cancer lines; higher = less cytotoxic; conditions: 10 µM; 72 h
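Note: stably firefly luciferase-GFP labeled cells in 96-well plates, viability read as luciferase photon flux after d-luciferin addition, treated wells normalized to vehicle wells, single-dose high-throughput screen.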

Compound | cell viability
Cl.O=C(CCCN1CCC(O)(c2ccc(Cl)cc2)CC1)c1ccc(F)cc1 [Haloperidol hydrochloride] | 95.7
CS(=O)(=O)c1ccc(C(O)C(CO)NC(=O)C(Cl)Cl)cc1 (stereo not drawn) [Thiamphenicol] | 112
CCOc1ccc(Cc2cc(C3OC(CO)C(O)C(O)C3O)ccc2Cl)cc1 (stereo not drawn) [Dapagliflozin] | 115
CN(C)C(=O)NC1CCC(CCN2CCN(c3cccc(Cl)c3Cl)CC2)CC1 (stereo not drawn) [Cariprazine] | 120
NC(CO)(CO)CO.O=C(c1ccccc1)c1ccc2n1CCC2C(=O)O (stereo not drawn) [Ketorolac tromethamine salt] | 130
C.CCN1CC(CCN2CCOCC2)C(c2ccccc2)(c2ccccc2)C1=O.O (stereo not drawn) [Doxapram HCl] | 108
CN(C)CCOC(C)(c1ccccc1)c1ccccn1.O=C(O)CCC(=O)O (stereo not drawn) [Doxylamine Succinate] | 106
CC(C)Cc1ccc(C(C)C(=O)O)cc1 (stereo not drawn) [Ibuprofen] | 106
CC(=O)Oc1cc2c(s1)CCN(C(C(=O)C1CC1)c1ccccc1F)C2.Cl (stereo not drawn) [Prasugrel hydrochloride] | 109
O=C([O-])CCCc1ccccc1.[Na+] [Sodium Phenylbutyrate] | 129
Cl.O=C1c2cccc3c2C(CCC3)CN1C1CN2CCC1CC2 (stereo not drawn) [Palonosetron HCl] | 77.4
CC1(c2nc3c(C(N)=O)cccc3[nH]2)CCCN1 (stereo not drawn) [ABT-888 (Veliparib)] | 123
CO[C@H]1C[C@@H]2CC[C@@H](C)[C@@](O)(O2)C(=O)C(=O)N2CCCC[C@H]2C(=O)O[C@H]([C@H](C)C[C@@H]2CC[C@@H](OC(=O)C(C)(CO)CO)[C@H](OC)C2)CC(=O)[C@H](C)/C=C(\C)[C@@H](O)[C@@H](OC)C(=O)[C@H](C)C[C@H](C)/C=C/C=C/C=C/1C [Temsirolimus] | 74.7
CCCNC(C)C(=O)Nc1ccccc1C.Cl (stereo not drawn) [Prilocaine hydrochloride] | 106
S=P(N1CC1)(N1CC1)N1CC1 | 126
CCCCC(=O)OC1(C(=O)CO)C(C)CC2C3CCC4=CC(=O)C=CC4(C)C3(F)C(O)CC21C (stereo not drawn) [Betamethasone Valerate] | 159
CN(C)CCOC(c1ccccc1)c1ccccc1.Cl [Diphenhydramine HCl] | 96.6
CC1(C)SC2C(NC(=O)C(NC(=O)N3CCNC3=O)c3ccccc3)C(=O)N2C1C(=O)[O-].[Na+] (stereo not drawn) [Azlocillin sodium salt] | 137
Cc1ccc(Nc2nccc(N(C)c3ccc4c(C)n(C)nc4c3)n2)cc1S(N)(=O)=O.Cl | 119
CC(C)N=c1cc2n(-c3ccc(Cl)cc3)c3ccccc3nc-2cc1Nc1ccc(Cl)cc1 [Clofazimine] | 87.9
O=C(CCc1ccc(O)cc1)c1c(O)cc(O)cc1OC1OC(CO)C(O)C(O)C1O (stereo not drawn) [Phloridzin] | 102
O=C(CCCN1CCN(c2ccccn2)CC1)c1ccc(F)cc1 [Azaperone] | 151
CC(=O)O[C@@]12CO[C@@H]1C[C@H](O)[C@@]1(C)C(=O)[C@H](O)C3=C(C)[C@@H](OC(=O)[C@H](O)[C@@H](NC(=O)OC(C)(C)C)c4ccccc4)C[C@@](O)([C@@H](OC(=O)c4ccccc4)[C@H]21)C3(C)C [Docetaxel] | 138
CC(C)(O)c1ccccc1CCC(SCC1(CC(=O)[O-])CC1)c1cccc(C=Cc2ccc3ccc(Cl)cc3n2)c1.[Na+] (stereo not drawn) [Montelukast Sodium] | 96.9
Nc1c(CC(=O)[O-])cccc1C(=O)c1ccc(Br)cc1.[Na+] [Bromfenac Sodium] | 91.6
Cc1cccn2c(=O)c(-c3nnn[n-]3)cnc12.[K+] [Pemirolast potassium] | 112
CNC(=C[N+](=O)[O-])NCCSCc1ccc(CN(C)C)o1.Cl [Ranitidine] | 102
O=P(O)(O)C(O)(Cn1ccnc1)P(=O)(O)O [Zoledronic Acid] | 79.4
